# In the supplement of paper PMC8728848:
# The other results are listed elsewhere or left out.
# Columns and labels:
# Assay in all cases: glycan array binding signal (z-score within array); higher = stronger binding
# Conditions in all cases: glycan notation: IUPAC condensed, linker removed
# Fuc(a1-2)Gal = biological target: Fuc(a1-2)Gal
# Summary of the method: (§1)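 Arrays were curated from the Consortium for Functional Glycomics database, 3228 in total, and kept only where the protein sequence was available. Binding is expressed as a within-array Z-score. This score was averaged across arrays of the same protein sequence at different concentrations or buffers and across linkers, and negative values can be read as non-binding.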
# Fuc(a1-2)Gal(b1-3)GalNAc = biological target: Fuc(a1-2)Gal(b1-3)GalNAc
# Summary of the method: as §1
# [1] = biological target: Fuc(a1-2)Gal(b1-3)GalNAc(a1-3)[Fuc(a1-2)]Gal(b1-4)Glc
# Summary of the method: as §1
# [2] = biological target: Fuc(a1-2)Gal(b1-3)GalNAc(a1-3)[Fuc(a1-2)]Gal(b1-4)GlcNAc
# Summary of the method: as §1
# [3] = biological target: Fuc(a1-2)Gal(b1-3)GalNAc(b1-3)Gal
# Summary of the method: as §1
# [4] = biological target: Fuc(a1-2)Gal(b1-3)GalNAc(b1-3)Gal(a1-4)Gal(b1-4)Glc
# Summary of the method: as §1
# [5] = biological target: Fuc(a1-2)Gal(b1-3)GalNAc(b1-4)[Neu5Ac(a2-3)]Gal(b1-4)Glc
# Summary of the method: as §1
# Fuc(a1-2)Gal(b1-3)GlcNAc = biological target: Fuc(a1-2)Gal(b1-3)GlcNAc
# Summary of the method: as §1
# [6] = biological target: Fuc(a1-2)Gal(b1-3)GlcNAc(b1-2)Man(a1-3)[Fuc(a1-2)Gal(b1-3)GlcNAc(b1-2)Man(a1-6)]Man(b1-4)GlcNAc(b1-4)GlcNAc
# Summary of the method: as §1
# [7] = biological target: Fuc(a1-2)Gal(b1-3)GlcNAc(b1-2)Man(a1-3)[Fuc(a1-2)Gal(b1-3)GlcNAc(b1-2)Man(a1-6)]Man(b1-4)GlcNAc(b1-4)[Fuc(a1-6)]GlcNAc
# Summary of the method: as §1
# [8] = biological target: Fuc(a1-2)Gal(b1-3)GlcNAc(b1-3)Gal(b1-4)Glc
# Summary of the method: as §1
# [9] = biological target: Fuc(a1-2)Gal(b1-3)GlcNAc(b1-3)GalNAc
# Summary of the method: as §1
# [10] = biological target: Fuc(a1-2)Gal(b1-3)GlcNAc(b1-3)[Fuc(a1-2)Gal(b1-3)GlcNAc(b1-6)]GalNAc
# Summary of the method: as §1
# [11] = biological target: Fuc(a1-2)Gal(b1-3)GlcNAc(b1-3)[Gal(b1-4)GlcNAc(b1-6)]Gal(b1-4)Glc
# Summary of the method: as §1
# [12] = biological target: Fuc(a1-2)Gal(b1-3)GlcNAc(b1-3)[Neu5Ac(a2-6)Gal(b1-4)GlcNAc(b1-6)]Gal(b1-4)Glc
# Summary of the method: as §1
# [13] = biological target: Fuc(a1-2)Gal(b1-3)GlcNAc6S
# Summary of the method: as §1
# [14] = biological target: Fuc(a1-2)Gal(b1-3)[Fuc(a1-4)]GlcNAc
# Summary of the method: as §1
# [15] = biological target: Fuc(a1-2)Gal(b1-3)[Fuc(a1-4)]GlcNAc(b1-2)Man(a1-3)[Fuc(a1-2)Gal(b1-3)[Fuc(a1-4)]GlcNAc(b1-2)Man(a1-3)]Man(b1-4)GlcNAc(b1-4)GlcNAc
# Summary of the method: as §1
# [16] = biological target: Fuc(a1-2)Gal(b1-3)[Fuc(a1-4)]GlcNAc(b1-2)Man(a1-3)[Fuc(a1-2)Gal(b1-3)[Fuc(a1-4)]GlcNAc(b1-2)Man(a1-6)]Man(b1-4)GlcNAc(b1-4)[Fuc(a1-6)]GlcNAc(b1-4)[Fuc(a1-6)]GlcNAc
# Summary of the method: as §1
# [17] = biological target: Fuc(a1-2)Gal(b1-3)[Fuc(a1-4)]GlcNAc(b1-3)[Fuc(a1-3)[Gal(b1-4)]GlcNAc(b1-6)]Gal(b1-4)Glc
# Summary of the method: as §1
# [18] = biological target: Fuc(a1-2)Gal(b1-3)[Fuc(a1-4)]GlcNAc(b1-3)[Gal(b1-4)GlcNAc(b1-6)]Gal(b1-4)Glc
# Summary of the method: as §1
# Fuc(a1-2)Gal(b1-4)Glc = biological target: Fuc(a1-2)Gal(b1-4)Glc
# Summary of the method: as §1
# Fuc(a1-2)Gal(b1-4)Glc6S = biological target: Fuc(a1-2)Gal(b1-4)Glc6S
# Summary of the method: as §1
# Fuc(a1-2)Gal(b1-4)GlcNAc = biological target: Fuc(a1-2)Gal(b1-4)GlcNAc
# Summary of the method: as §1
# [19] = biological target: Fuc(a1-2)Gal(b1-4)GlcNAc(b1-2)Man
# Summary of the method: as §1
# [20] = biological target: Fuc(a1-2)Gal(b1-4)GlcNAc(b1-2)Man(a1-3)[Fuc(a1-2)Gal(b1-4)GlcNAc(b1-2)Man(a1-6)]Man(b1-4)GlcNAc(b1-4)GlcNAc
# Summary of the method: as §1
# [21] = biological target: Fuc(a1-2)Gal(b1-4)GlcNAc(b1-2)Man(a1-3)[Fuc(a1-2)Gal(b1-4)GlcNAc(b1-2)Man(a1-6)]Man(b1-4)GlcNAc(b1-4)[Fuc(a1-6)]GlcNAc
# Summary of the method: as §1
# [22] = biological target: Fuc(a1-2)Gal(b1-4)GlcNAc(b1-2)[Fuc(a1-2)Gal(b1-4)GlcNAc(b1-4)]Man(a1-3)[Fuc(a1-2)Gal(b1-4)GlcNAc(b1-2)Man(a1-6)]Man(b1-4)GlcNAc(b1-4)GlcNAc
# Summary of the method: as §1
# [23] = biological target: Fuc(a1-2)Gal(b1-4)GlcNAc(b1-3)Gal(b1-4)GlcNAc
# Summary of the method: as §1
# [24] = biological target: Fuc(a1-2)Gal(b1-4)GlcNAc(b1-3)Gal(b1-4)GlcNAc(b1-2)Man(a1-3)[Fuc(a1-2)Gal(b1-4)GlcNAc(b1-3)Gal(b1-4)GlcNAc(b1-2)Man(a1-6)]Man(b1-4)GlcNAc(b1-4)GlcNAc
# Summary of the method: as §1
binder,measurement,setting,value
AidA (Burkholderia cenocepacia) (protein) MSRVTDVLVSFDTETILKKYPNPSKNPAAPTLIDWRYVYMVTNQDNVISGQAGGELDLKAQVGDLIRWRETSLSLGFENQVVFYKFIGNVGNDLISTPTPRVAEASIPVPNTSKPEVPTCQKVANYYWSSECLKVGRVTYHFQFQIIDRNCQSQGCFSWDPFISIHN,glycan array binding signal (z-score),Fuc(a1-2)Gal,0.775
same,glycan array binding signal (z-score),Fuc(a1-2)Gal(b1-3)GalNAc,-0.214
same,glycan array binding signal (z-score),[1],-0.374
same,glycan array binding signal (z-score),[2],-0.452
same,glycan array binding signal (z-score),[3],0.864
same,glycan array binding signal (z-score),[4],-0.416
same,glycan array binding signal (z-score),[5],-0.274
same,glycan array binding signal (z-score),Fuc(a1-2)Gal(b1-3)GlcNAc,-0.432
same,glycan array binding signal (z-score),[6],0.697
same,glycan array binding signal (z-score),[7],0.268
same,glycan array binding signal (z-score),[8],-0.217
same,glycan array binding signal (z-score),[9],-0.808
same,glycan array binding signal (z-score),[10],-0.616
same,glycan array binding signal (z-score),[11],0.16
same,glycan array binding signal (z-score),[12],-0.287
same,glycan array binding signal (z-score),[13],0.027
same,glycan array binding signal (z-score),[14],-0.268
same,glycan array binding signal (z-score),[15],0.069
same,glycan array binding signal (z-score),[16],-0.336
same,glycan array binding signal (z-score),[17],-0.286
same,glycan array binding signal (z-score),[18],-0.394
same,glycan array binding signal (z-score),Fuc(a1-2)Gal(b1-4)Glc,0.106
same,glycan array binding signal (z-score),Fuc(a1-2)Gal(b1-4)Glc6S,-0.383
same,glycan array binding signal (z-score),Fuc(a1-2)Gal(b1-4)GlcNAc,-0.597
same,glycan array binding signal (z-score),[19],0.458
same,glycan array binding signal (z-score),[20],-0.247
same,glycan array binding signal (z-score),[21],-0.443
same,glycan array binding signal (z-score),[22],-0.343
same,glycan array binding signal (z-score),[23],-0.74
same,glycan array binding signal (z-score),[24],0.938
